This is one part of the list. The list includes weakly bound sequences.

Drawing on publication PMC4242493, this text covers binding signal (normalized occupancy) for 172 sequences.

This assay addresses MaxL homodimer (UniProt P61244). As to the kind of experiment: universal protein-binding microarray (PBM). The settings on record: PBS-based mixture, 10 nM His-tagged protein dimer, 2% milk, 200 ng/uL BSA, 50 ng/uL salmon testes DNA, 0.02% TX-100; detection with Alexa 488 anti-His …; high values mean tight binding; most listed sequences are background and not binding sites; double strand, one strand shown.
Chain of UniProt P61244 (P61244 whole entry): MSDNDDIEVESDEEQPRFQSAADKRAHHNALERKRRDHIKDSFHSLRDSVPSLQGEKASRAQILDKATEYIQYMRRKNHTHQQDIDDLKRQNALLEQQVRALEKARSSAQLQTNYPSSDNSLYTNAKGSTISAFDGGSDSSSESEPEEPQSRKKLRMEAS
Consider TACGACAA, for which the binding signal (normalized occupancy) amounted to 0.0706.
Turning to CGACTAGA, the binding signal (normalized occupancy) is 0.0749.
Take ATCCTGGA: the binding signal (normalized occupancy) was 0.0757.
Under AGCCGGCA stands 0.0634; under CTTTAGTA, 0.073; under CCGCATGA, 0.113.
As for CCGCCAGC, the figure is 0.0729; as for CGACTGAA, 0.0682; as for AACACGAT, 0.0845.
Regarding CAGTATAC, the binding signal (normalized occupancy) worked out at 0.0771.
For the sequence ATCACTTA, the binding signal (normalized occupancy) came to 0.08.
Turning to ACGAGCGC, the binding signal (normalized occupancy) came out at 0.0701.
CTTTACAC: the binding signal (normalized occupancy) came out at 0.0805.
As for CAGAGCGA, the binding signal (normalized occupancy) amounted to 0.0737.
Under CGGAGTAA stands 0.071; under AATGTTCG, 0.0738.
As for ACTCCTAA, the figure is 0.0732; as for CCATCCGG, 0.076; as for CCATTTGA, 0.0761.
As to CCGCACAA, the binding signal (normalized occupancy) amounted to 0.0791.
As to ACGCACTC, the binding signal (normalized occupancy) came to 0.0766.
Under ACGAGGTC stands 0.0849; under AAGGCCCC, 0.071.
As for GATCGACA, the binding signal (normalized occupancy) was 0.0758.
As for GCGGGCAC, the figure is 0.0758.
Under GGCCATTA stands 0.0755.
Under CCGTTCTC stands 0.0814; under CACAAAAG, 0.0701.
With ATAGACTC, the binding signal (normalized occupancy) is 0.0787.
As for ACCGAGAT, the figure is 0.0721.
Under CCGTCAGG stands 0.0679.
As for ACGTGCGA, the figure is 0.093; as for GTAAACAA, 0.0774; as for GAGGAGGA, 0.0761.
For the sequence AGAAACTC, the binding signal (normalized occupancy) is 0.0708.
In the case of GTAGGCTA, the binding signal (normalized occupancy) is 0.0748.
In the case of CGCACAGA, the binding signal (normalized occupancy) was found to be 0.0751.
Under ATATATGG stands 0.0895.
As for GCACGGCC, the figure is 0.0758.
For CCCCCTCA, the binding signal (normalized occupancy) stood at 0.0845.
With GAGCTATA, the binding signal (normalized occupancy) amounted to 0.0729.
In the case of AGATAGTA, the binding signal (normalized occupancy) amounted to 0.0806.
As for ATAGTGCC, the figure is 0.0756; as for AAATAGGC, 0.076.
In the case of GTATCACA, the binding signal (normalized occupancy) was found to be 0.0821.
Under AGGCAGAT stands 0.0775; under CACAGCCC, 0.0731.
As for TGTCCGAA, the figure is 0.0691.
As for CAATTAAA, the figure is 0.0744; as for TACGTCCA, 0.0733; as for CCTATTCA, 0.0792.
Regarding ATTTTAAA, the binding signal (normalized occupancy) turned out to be 0.0743.
Under AAGCTTAC stands 0.0706; under AGCGGTTG, 0.072.
As for AAGGGACG, the figure is 0.0723; as for AAATAAGA, 0.0759.
AATGTTAG: the binding signal (normalized occupancy) is 0.0805.
As for TCCCCAAA, the figure is 0.0787; as for CGCTCCAC, 0.0821.
Consider GTGATAAC, for which the binding signal (normalized occupancy) is 0.0841.
Under CACACTGC stands 0.0826; under CAGGGGGA, 0.0851.
As for AATTATCG, the figure is 0.0772; as for TAACTCAA, 0.0715.
Under TACTGAAA stands 0.0813; under CGAATTGC, 0.0728; under CTGAGTAC, 0.0687.
With ATTTCAAC, the binding signal (normalized occupancy) is 0.0786.
Under CGGGATCC stands 0.0764; under ACTTGATC, 0.0788.
With AGGTTTTG, the binding signal (normalized occupancy) stood at 0.065.
Under AGCTATGC stands 0.0688; under AGGACGGA, 0.0714.
As for GATAATGA, the figure is 0.0767; as for CAACCCGA, 0.0678.
For CTTTGTAA, the binding signal (normalized occupancy) was 0.0738.
Under AGCATGCG stands 0.124; under ACGTGGGC, 0.1; under ACAAACCA, 0.0736.
As for ATAATAGA, the figure is 0.0841.
On to CAGCGTAC, for which the binding signal (normalized occupancy) is 0.0708.
For AAGGGATA, the binding signal (normalized occupancy) came to 0.0787.
Under CTTTCGCA stands 0.0746; under CCAACTGA, 0.076; under CCCGGGGC, 0.0676.
Under ACGTCGAC stands 0.0714.
As for ACGGCATG, the figure is 0.103.
Turning to GCCGGCAA, the binding signal (normalized occupancy) came out at 0.0693.
As to GATCATCA, the binding signal (normalized occupancy) was determined as 0.0795.
Under AGTTGTCA stands 0.0738; under AATATAGA, 0.0859; under CCTATAGA, 0.0848.
Regarding CATAAGAA, the binding signal (normalized occupancy) is 0.085.
In the case of ACGCGAAT, the binding signal (normalized occupancy) was 0.0863.
As for CAGTACCA, the figure is 0.0759.
As for AAACAATG, the figure is 0.0821; as for ACAGAAAT, 0.0761; as for GTTTTGAA, 0.0702.
As to GAAGCAGC, the binding signal (normalized occupancy) was 0.0689.
ACATGACC: the binding signal (normalized occupancy) was 0.0952.
Under AATCTATG stands 0.0822.
Under GAGTCCAA stands 0.0715; under CCTAATAA, 0.0761.
For TATGTTCA, the binding signal (normalized occupancy) was determined as 0.0769.
Under CTGGCATA stands 0.075; under AGTGGAGA, 0.0775; under CCACGGGA, 0.0794.
Under GCTATCCC stands 0.079; under AAGCCCGG, 0.064; under AAGAGCAC, 0.0774.
Under ATACCCCC stands 0.0919; under CGCCCTGC, 0.0699; under AGTAAACC, 0.0715.
As for CCTTTCGA, the binding signal (normalized occupancy) was 0.0683.
As for AGGATGTC, the binding signal (normalized occupancy) stood at 0.0814.
Take GGTGTTAC: the binding signal (normalized occupancy) turned out to be 0.0741.
Under CCATCCTA stands 0.0827.
Under CCGGAGCG stands 0.0667; under GTAAGTTA, 0.0731; under ACCCACGG, 0.0796.
As for ATCGCGGG, the figure is 0.0725; as for CCAATAGC, 0.0726; as for GCAACGAC, 0.0721.
Consider ACCAACTG, for which the binding signal (normalized occupancy) was 0.0711.
As for TCTGGCCA, the figure is 0.0756; as for CATCGTCG, 0.0723; as for GCCCGTAA, 0.0707.
Under CAAGTTGG stands 0.0737; under GTGGGTTA, 0.0825; under AATCCAGA, 0.0746.
Under ATGCTTAG stands 0.0869.
For CTGCGTAA, the binding signal (normalized occupancy) worked out at 0.0747.
As to AAAACAAT, the binding signal (normalized occupancy) came to 0.0769.
With GCTGCATA, the binding signal (normalized occupancy) was 0.0772.
As for GTTACCTA, the figure is 0.0825.
As for GAAGCAGA, the figure is 0.0767; as for TACCCGGA, 0.0705; as for CTAACTAC, 0.077.
As for ACTGGTAG, the figure is 0.0742; as for AGCCTGAG, 0.066; as for TAAATCCA, 0.0745.
As to ATCAGCAA, the binding signal (normalized occupancy) was determined as 0.0728.
As for ACTGTGAT, the figure is 0.0734; as for AGACGCAT, 0.0847.
As for ACACATCT, the figure is 0.0851.
Under GGAGAATA stands 0.0811; under ATATCGTA, 0.0842.
As to AATAAGAC, the binding signal (normalized occupancy) turned out to be 0.0768.
As for ACGATAGC, the figure is 0.0748; as for GCTAATCA, 0.0777.
Under TATTTTCA stands 0.0746; under ATGTGCGG, 0.104; under CCATAACC, 0.0807.
Turning to GTAGTGAA, the binding signal (normalized occupancy) was 0.082.
As for ACTGATCA, the figure is 0.0812; as for AATACGAC, 0.076.
As for AACGCCGT, the figure is 0.0694; as for AGAATGAG, 0.0802; as for ACAGTGTG, 0.0848.
As for GCAATTAC, the figure is 0.0727; as for AAACTTTC, 0.0713.
For ACACATAA, the binding signal (normalized occupancy) was determined as 0.082.
For the sequence CATCATGC, the binding signal (normalized occupancy) worked out at 0.0995.
For the sequence GACGATGA, the binding signal (normalized occupancy) was found to be 0.0766.
In the case of CCTTAGGA, the binding signal (normalized occupancy) amounted to 0.0723.
For the sequence CACCCGAA, the binding signal (normalized occupancy) came out at 0.0761.
Consider GCGGGGAC, for which the binding signal (normalized occupancy) worked out at 0.0716.
With CGTGAGCC, the binding signal (normalized occupancy) worked out at 0.0922.
As for AATCGAGG, the binding signal (normalized occupancy) was determined as 0.0718.
Take AAGTTTCT: the binding signal (normalized occupancy) turned out to be 0.0797.
Under AGCCGTGA stands 0.0713.
As for AGTTCGTC, the binding signal (normalized occupancy) stood at 0.069.
